Laboratory results: PMC4336329 (PLoS ONE, 2015)
Hit rate of the full screen: of about 310,000 compounds, about 2,200 (0.71%) showed an effect of 50% or more. The effect is printed as a negative number. The list shows a part of the results.

Molecular target: human ether-à-go-go-related gene (hERG) potassium channel (human, UniProt Q12809)
Experiment: primary screen, population patch clamp on CHO cells stably expressing hERG

Sequence of human ether-à-go-go-related gene (hERG) potassium channel (Q12809 whole entry, looked up): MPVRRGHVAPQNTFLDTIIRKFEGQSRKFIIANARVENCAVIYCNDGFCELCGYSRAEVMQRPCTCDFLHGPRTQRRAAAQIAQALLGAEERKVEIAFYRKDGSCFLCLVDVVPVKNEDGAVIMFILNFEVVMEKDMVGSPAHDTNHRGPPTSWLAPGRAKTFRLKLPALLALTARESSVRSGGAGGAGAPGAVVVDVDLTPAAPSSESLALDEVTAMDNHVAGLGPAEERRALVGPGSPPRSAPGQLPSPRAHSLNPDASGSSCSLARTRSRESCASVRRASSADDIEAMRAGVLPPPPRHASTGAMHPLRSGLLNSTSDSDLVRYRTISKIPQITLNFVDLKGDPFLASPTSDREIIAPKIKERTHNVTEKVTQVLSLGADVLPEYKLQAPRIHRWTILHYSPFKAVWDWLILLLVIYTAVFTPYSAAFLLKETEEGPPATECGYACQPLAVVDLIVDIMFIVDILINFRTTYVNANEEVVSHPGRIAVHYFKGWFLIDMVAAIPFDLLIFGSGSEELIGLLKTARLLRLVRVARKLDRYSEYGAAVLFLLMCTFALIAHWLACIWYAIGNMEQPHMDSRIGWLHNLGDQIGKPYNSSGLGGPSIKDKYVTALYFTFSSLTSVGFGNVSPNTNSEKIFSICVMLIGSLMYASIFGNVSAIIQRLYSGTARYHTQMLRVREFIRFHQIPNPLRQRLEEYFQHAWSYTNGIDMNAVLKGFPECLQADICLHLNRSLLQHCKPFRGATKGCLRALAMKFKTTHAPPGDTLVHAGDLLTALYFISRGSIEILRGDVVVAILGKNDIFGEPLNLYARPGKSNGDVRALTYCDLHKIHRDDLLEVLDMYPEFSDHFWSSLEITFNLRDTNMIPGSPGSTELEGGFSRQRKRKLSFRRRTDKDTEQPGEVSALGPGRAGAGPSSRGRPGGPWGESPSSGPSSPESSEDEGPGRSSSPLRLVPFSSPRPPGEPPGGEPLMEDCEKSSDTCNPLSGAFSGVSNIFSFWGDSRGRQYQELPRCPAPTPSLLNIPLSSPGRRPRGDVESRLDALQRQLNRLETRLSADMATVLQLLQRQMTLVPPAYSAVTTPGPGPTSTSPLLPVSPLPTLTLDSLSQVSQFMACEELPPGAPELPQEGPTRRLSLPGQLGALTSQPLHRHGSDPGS

First: COc1ccc(Oc2coc3cc(OC(=O)c4cccs4)ccc3c2=O)cc1
Second: COc1ccc(CNC(=O)CN(Cc2ccc(OC)cc2)C(=O)c2csnn2)cc1
The “hERG current change (%, negative = inhibition) at 1uM” value of the first is higher: 11.5% for the first, -7.34% for the second.

First: C=C(C)CN1C(=O)C(=O)N(CC(=C)C)C1=O
Second: CCn1c(=O)c2sccc2n(Cc2ccc(C)cc2)c1=O
The “hERG current change (%, negative = inhibition) at 1uM” value of the first is lower: 15.1% for the first, 19.5% for the second.

First: O=C(Nc1ccccc1C(=O)NCc1ccco1)NC1CCCCC1
Second: Cl.O=C(CN1CCC(NC(=O)c2ccccc2Cl)CC1)NCc1ccco1
The “hERG current change (%, negative = inhibition) at 1uM” value of the first is lower: 0.709% for the first, 8.06% for the second.

First: CN(CCOC(=O)c1ccc2c(c1)OCCO2)C(C)(C)C.Cl
Second: CCn1c(C)c(C)c2cc(C(=O)NCCN3CCOCC3)ccc21
The “hERG current change (%, negative = inhibition) at 1uM” value of the first is higher: 18.1% for the first, 0.601% for the second.

Compared with `O=Cc1cn(CCOc2ccccc2F)c2ccccc12`, `COc1ccc(CNn2c(-c3ccccc3F)nc3ccccc3c2=O)cc1OC` is higher in “hERG current change (%, negative = inhibition) at 1uM” value: 11% for the first, 20.2% for the second.

First: Cc1nn(C)c(C)c1NC(=O)C12CC3CC(CC(C3)C1)C2
Second: COC(=O)c1c(NC(=O)C(=O)N2CCCCC2)sc2c1CC(C)(C)OC2
The “hERG current change (%, negative = inhibition) at 1uM” value of the first is higher: 6.27% for the first, 2.15% for the second.

First: Oc1ccccc1C1=NCCNC(C(F)(F)F)=C1
Second: O=C1C2CCN(CC2)C1Cc1ccccc1O (stereo not drawn)
The “hERG current change (%, negative = inhibition) at 1uM” value of the first is lower: 8.12% for the first, 12% for the second.

Going from `COc1ccc(-c2cn(CCO)c(CCN)n2)cc1` to `COc1ccc(-c2oc3ccc(N4CCOCC4)cc3c2C#CCO)cc1`, the “hERG current change (%, negative = inhibition) at 1uM” value rises from 7.7% to 11.2%.

Compared with `Cc1cc(C)cc(NS(=O)(=O)c2ccc(-c3cnc(C4CC4)o3)cc2)c1`, `O=S(=O)(c1ccc(-c2csc(-c3cccnc3)n2)cc1)N1CCCCC1` is lower in “hERG current change (%, negative = inhibition) at 1uM” value: 14.1% for the first, 12.3% for the second.

First: O=C(O)/C(=C\c1ccco1)NC(=O)c1cccc2ccccc12
Second: Cc1ccccc1C(=O)N(C)c1ccccc1C(=O)NCc1ccccc1
The “hERG current change (%, negative = inhibition) at 1uM” value of the first is higher: -0.725% for the first, -8.7% for the second.

First: O=S1(=O)N=C(Nc2ccc(N3CCOCC3)cc2)c2ccccc21
Second: O=C(c1ccc(Cl)c(NC2=NC3CS(=O)(=O)CC3S2)c1)N1CCN(c2ccccc2)CC1 (stereo not drawn)
The “hERG current change (%, negative = inhibition) at 1uM” value of the first is lower: -10.3% for the first, 15.4% for the second.

Compared with `Cc1cccc(C)c1OCC(=O)Nc1ccncc1`, `Cc1ccc(N(CC(=O)NCc2ccncc2)S(C)(=O)=O)cc1` is higher in “hERG current change (%, negative = inhibition) at 1uM” value: 11.5% for the first, 15.4% for the second.

First: COCCNC(=O)C(c1ccc(Cl)cc1)N(C(=O)CCC(=O)Nc1ccccn1)C1CCCC1 (stereo not drawn)
Second: CC(C)CC(=O)Nc1ccc(C(=O)COC(=O)Cc2n[nH]c(=O)c3ccccc23)cc1
The “hERG current change (%, negative = inhibition) at 1uM” value of the first is higher: 8.06% for the first, -0.765% for the second.

Compared with `CC(=O)N1CCN(C2c3cccc4cccc(c34)C2NS(=O)(=O)c2ccccc2)CC1` (stereo not drawn), `Cc1cc(S(=O)(=O)Nc2ccc(C(=O)NCC(c3ccccc3)N(C)C)cc2)ccc1F` (stereo not drawn) is lower in “hERG current change (%, negative = inhibition) at 1uM” value: 7.67% for the first, -8.56% for the second.

First: COc1ccccc1CNC(=O)C(C)n1nc(C)n2c(cc3occc32)c1=O (stereo not drawn)
Second: COc1ccccc1NC(=S)N(Cc1ccco1)Cc1cc2cc(C)c(C)cc2[nH]c1=O
The “hERG current change (%, negative = inhibition) at 1uM” value of the first is lower: -2.98% for the first, 1.04% for the second.

Going from `O=c1nccc(N/N=C/c2ccccc2)[nH]1` to `O=C(NC(C(=O)N/N=C/c1ccccn1)c1n[nH]c(=O)c2ccccc12)c1ccccc1` (stereo not drawn), the “hERG current change (%, negative = inhibition) at 1uM” value falls from 10.9% to 0.335%.

First: O=[N+]([O-])c1ccc(C(O)C[n+]2ccccc2)cc1.[I-] (stereo not drawn)
Second: Cc1cc(C)c[n+](CC(=O)c2ccc(-c3ccccc3)cc2)c1.[Br-]
The “hERG current change (%, negative = inhibition) at 1uM” value of the first is higher: 15% for the first, 2.96% for the second.

Compared with `CC(NS(C)(=O)=O)C(c1cccs1)N1CCN(c2ccc(F)cc2)CC1` (stereo not drawn), `O=C(c1ccc(F)cc1F)N1CCN(c2ccccn2)CC1` is higher in “hERG current change (%, negative = inhibition) at 1uM” value: 4.48% for the first, 6.22% for the second.

Compared with `COc1cc(OC)c2nc(C)c3c(c2c1)N(c1ccc(O)cc1)CC3`, `COc1cc2sc(C)nc2c2ccccc12` is higher in “hERG current change (%, negative = inhibition) at 1uM” value: -57.2% for the first, 13% for the second.

Compared with `O=c1[nH]c(C2CCN(S(=O)(=O)c3ccc4c(c3)OCCO4)CC2)nc2c1nnn2Cc1ccc(F)cc1`, `Cc1ccc(-c2nnn(CC(=O)NC3CCN(Cc4ccccc4)CC3)n2)cc1` is lower in “hERG current change (%, negative = inhibition) at 1uM” value: 22% for the first, 6.56% for the second.

First: OC1(c2ccc(Cl)cc2)CCN(Cc2c[nH]c3ccccc23)CC1
Second: CNC(=O)c1cn(-c2ccc(Cl)cc2)c(=O)c2ccccc12
The “hERG current change (%, negative = inhibition) at 1uM” value of the first is lower: -27.6% for the first, 8.27% for the second.

First: Cc1cc(C)c(NC(=O)CSc2nc3ccc(NC(=O)CSc4nnnn4-c4ccccc4)cc3s2)c(C)c1
Second: CCn1c(SCC(=O)Nc2cccc(F)c2)nc2c(c1=O)SC(C)C2 (stereo not drawn)
The “hERG current change (%, negative = inhibition) at 1uM” value of the first is higher: 10.5% for the first, -11% for the second.

Compared with `CC(C)N(CC(O)COc1ccc(CC(N)=O)cc1)CC(O)COc1ccc(CC(N)=O)cc1` (stereo not drawn), `CCOc1cccc(=O)c2c(C)n(CC(=O)c3ccccc3)c(C)c12` is lower in “hERG current change (%, negative = inhibition) at 1uM” value: 13% for the first, 8.74% for the second.

Going from `CCOc1ccccc1OCC(O)CNC` (stereo not drawn) to `CCN(Cc1ccccc1)C(=O)CSc1ncn[nH]1`, the “hERG current change (%, negative = inhibition) at 1uM” value rises from 2.98% to 17.3%.

Going from `Cc1ccsc1CCNC(=O)C1CCC(=O)N(CCc2cccc(F)c2)C1` (stereo not drawn) to `Cc1cccc(Oc2nc3ccccn3c(=O)c2/C=C(\C#N)C(=O)NC2CCS(=O)(=O)C2)c1` (stereo not drawn), the “hERG current change (%, negative = inhibition) at 1uM” value rises from -17.8% to 10.2%.

Going from `C=CCOc1c(Cl)cc(CNCCC)cc1Cl.Cl` to `COc1ccc(Cl)cc1NC(=O)c1ccco1`, the “hERG current change (%, negative = inhibition) at 1uM” value rises from -0.476% to 4.11%.

Compared with `O=S(=O)(N/N=C\c1c(F)cccc1Cl)c1ccc(Cl)cc1`, `O=C1c2ccc3c4c(ccc(c24)C(=O)N1c1ccc2ccccc2c1)CC3` is lower in “hERG current change (%, negative = inhibition) at 1uM” value: 8.01% for the first, 4.92% for the second.

First: CCn1c(C)csc1=NC(=O)c1ccccc1O
Second: CCC(C)(CC(=O)Nc1nccs1)c1ccccc1 (stereo not drawn)
The “hERG current change (%, negative = inhibition) at 1uM” value of the first is lower: 8.67% for the first, 14.5% for the second.

`COc1cc(C)ccc1OCc1cc(C(=O)N2C[C@H]3CC[C@H]2C3)no1` was tested, and the “hERG current change (%, negative = inhibition) at 1uM” value was 10.9%.
